# In paper PMC4336329 (PLoS ONE, 2015):
# The whole screen tested about 310,000 compounds, of which about 2,200 (0.71%) showed an effect of 50% or more. The effect is printed as a negative number. This is one part of the list.
# Target: human ether-à-go-go-related gene (hERG) potassium channel (human, UniProt Q12809)
# Assay: primary screen, population patch clamp on CHO cells stably expressing hERG
# human ether-à-go-go-related gene (hERG) potassium channel, sequence (Q12809 whole entry, looked up): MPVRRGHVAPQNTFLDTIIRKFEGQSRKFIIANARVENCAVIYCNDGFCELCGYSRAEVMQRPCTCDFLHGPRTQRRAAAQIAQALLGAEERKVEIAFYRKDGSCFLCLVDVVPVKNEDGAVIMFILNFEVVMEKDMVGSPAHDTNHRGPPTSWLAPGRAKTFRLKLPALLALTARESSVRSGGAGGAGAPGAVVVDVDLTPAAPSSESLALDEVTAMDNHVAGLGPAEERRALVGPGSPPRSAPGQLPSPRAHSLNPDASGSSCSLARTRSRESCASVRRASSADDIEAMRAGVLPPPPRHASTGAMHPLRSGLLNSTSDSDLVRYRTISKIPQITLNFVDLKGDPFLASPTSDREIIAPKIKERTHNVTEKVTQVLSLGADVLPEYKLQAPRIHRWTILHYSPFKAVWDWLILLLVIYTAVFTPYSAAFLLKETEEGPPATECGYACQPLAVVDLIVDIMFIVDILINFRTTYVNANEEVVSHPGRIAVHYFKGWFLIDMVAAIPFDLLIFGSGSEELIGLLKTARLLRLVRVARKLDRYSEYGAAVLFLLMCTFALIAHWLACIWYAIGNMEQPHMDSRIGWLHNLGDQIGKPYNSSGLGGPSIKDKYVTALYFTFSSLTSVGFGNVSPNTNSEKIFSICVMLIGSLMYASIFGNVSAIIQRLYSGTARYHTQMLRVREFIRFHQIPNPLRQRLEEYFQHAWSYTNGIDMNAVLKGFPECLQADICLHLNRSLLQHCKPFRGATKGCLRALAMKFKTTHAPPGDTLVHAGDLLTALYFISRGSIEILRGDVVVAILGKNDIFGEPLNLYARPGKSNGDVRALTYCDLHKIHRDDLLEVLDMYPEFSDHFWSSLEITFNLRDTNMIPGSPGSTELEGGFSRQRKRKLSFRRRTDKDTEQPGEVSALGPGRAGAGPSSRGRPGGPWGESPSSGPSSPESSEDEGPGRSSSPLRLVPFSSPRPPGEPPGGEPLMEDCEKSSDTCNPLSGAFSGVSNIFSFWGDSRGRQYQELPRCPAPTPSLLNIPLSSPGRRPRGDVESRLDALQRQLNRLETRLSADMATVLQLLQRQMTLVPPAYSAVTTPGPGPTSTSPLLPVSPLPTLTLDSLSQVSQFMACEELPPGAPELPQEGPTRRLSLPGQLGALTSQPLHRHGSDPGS
row,SMILES,"hERG current change (%, negative = inhibition) at 1uM"
1,O=C(Nn1cnc2ccccc2c1=O)c1ccc(Cl)c([N+](=O)[O-])c1,12.6%
2,O=C(NC1CCCCC1)c1ccc(Cl)c(NC(=O)c2ccccc2F)c1,9.11%
3,CC(C)NC(=S)Nc1ccc2cn[nH]c2c1,7.62%
4,O=C(c1ccccc1Oc1ccc(C(F)(F)F)cc1[N+](=O)[O-])N1CCOCC1,7%
5,Cc1ccc(NS(=O)(=O)c2ccc(C(=O)N3CCN(c4ncccn4)CC3)cc2)cc1,1.36%
6,Cc1cccc2cc(C#N)c(SCC#N)nc12,21%
7,O=C(Nc1cccn2ncnc12)c1ccc(Cl)cc1,-4.04%
8,Cc1nc2ccccc2c(=O)n1/N=C/c1ccc(O)cc1O,18%
9,CCNC(=O)n1cc(-n2cncn2)c(-c2ccccc2)n1,9.41%
10,CNC(=S)N(CCCN(C)C)Cc1cc2cc3c(cc2[nH]c1=O)OCCO3,13.9%
11,COc1ccc(CCNC(=O)CN2C(=O)CCSc3ccccc32)c(OC)c1,5.89%
12,Cc1cccc(CCNC(=O)CCc2nc(-c3ccccc3F)no2)c1,6.73%
13,Cc1ccc2nc(NC(=O)CN3CCOCC3)sc2c1,-0.26%
14,O=C(NCCCc1ccccc1)C(=O)c1c[nH]c2ccccc12,12.6%
15,O=C(NCCc1ccccc1)C1CCC(CNc2nc(=S)[nH]c3ccccc23)CC1 (stereo not shown),6.06%
16,O=C(Cn1c(-c2ccccn2)nc2ccccc21)NCCN1CCOCC1,2.76%
17,COCCn1nnnc1C(C(C)C)N(Cc1cccnc1)Cc1ccccc1Cl (stereo not shown),-7.04%
18,COC(=O)c1ccc2c(=O)[nH]c(COC(=O)c3cccc(S(=O)(=O)N4CCOCC4)c3)nc2c1,17%
19,COc1ccc(-c2noc(CSc3nc4ccccc4c(=O)n3-c3ccccc3)n2)cc1,1.58%
20,Nc1nc(NCc2ccco2)nc(NCCO)c1[N+](=O)[O-],10.8%
21,O=C1Nc2cc(C(=O)N3CCN(c4ccccn4)CC3)ccc2S/C1=C\c1ccccc1,6.63%
22,CC(=O)OCc1c(C(F)(F)F)nn(C)c1SCc1ccc(Cl)cc1,15.1%
23,CC(C)Oc1ccc(/C=N/NC(N)=S)cc1,4.39%
24,CN(C)CCNC(=O)/C=N/O,15.9%
25,O=C(Nc1ccc(Cl)cc1C(=O)NCC1CCCO1)c1ccco1 (stereo not shown),-0.31%
26,CC(C)CN(C(=O)COC(=O)CSc1ccccc1F)c1c(N)n(Cc2ccccc2)c(=O)[nH]c1=O,11.7%
27,COc1ccc(NS(=O)(=O)c2ccc(Cl)c(C(=O)O)c2)cc1S(=O)(=O)N1CCCCC1,7.71%
28,COc1ccc2c(-c3ccccc3)cc(SCC(=O)NC3CCS(=O)(=O)C3)nc2c1 (stereo not shown),11%

row,SMILES,"hERG current change (%, negative = inhibition) at 1uM"
1,O=S(=O)(c1ccc(F)cc1)N1CCN(c2ccccn2)CC1,5.17%
2,Cc1nnc(NC(=O)c2ccc(S(=O)(=O)N(C)Cc3ccccc3)cc2)o1,2.16%
3,COc1ccc(-c2c(C#Cc3ccsc3)c3cc(-c4ccc5c(c4)OCO5)ccc3n2C)cc1,20%
4,CCn1c(SCC(=O)Nc2ccc(N(C)C)cc2)nnc1-c1ccco1,10.4%
5,O=c1cc(-c2ccccc2)nc(N2CCN(Cc3ccc4c(c3)OCO4)CC2)[nH]1,-0.427%
6,COc1ccc(C(=O)NC(C)c2csc(C)n2)cc1OC1CCN(C(C)=O)CC1 (stereo not shown),15.1%
7,O=C(CCC1CCCN(C(=O)c2ccc3[nH]ccc3c2)C1)N1CCN(c2ccccn2)CC1 (stereo not shown),18.5%
8,COc1ccc(CNC(=O)N[C@@H](CC(C)C)C(=O)O)cc1OC,5.69%
9,O=C(NCC(c1ccco1)N1CCOCC1)c1ccc(Cl)cc1 (stereo not shown),1.07%
10,NC(=O)[C@@H]1CCCCNc2c(I)cc([N+](=O)[O-])cc2C(=O)N[C@@H](CCC(=O)O)C(=O)N[C@@H](CO)C(=O)N1,11.2%
11,COc1cc(NC(=O)CSc2nnc3ccccn23)cc(OC)c1,2.78%
12,COc1ccc(CN2CCNC(=O)C2CC(=O)N(C)Cc2nccs2)cc1OC (stereo not shown),5.26%
13,Cc1cc(C)cc(NC(=O)N2CCC(c3nc4ccccc4o3)CC2)c1,2.63%
14,COc1ccc(OCC(O)CN2CCN(c3ccc(OC)cc3)CC2)cc1.Cl (stereo not shown),-2.16%
15,Oc1ccc(N=Cc2ccc(OCc3ccccc3)cc2)cc1,13.9%
16,O=C(Nc1ccc([N+](=O)[O-])cc1)c1cn(-c2ccccc2)nc1-c1cc2ccccc2o1,11.9%
17,Nc1ccc(NC2C[C@@H](C(=O)O)NC2=O)cc1 (stereo partly shown),10.6%
18,CCOc1ccc(NC(=O)Nc2nnc(CC(=O)NCc3ccccc3)s2)cc1,16.1%
19,CCOC(=O)N1CCC(N2Cc3cccc(C(=O)NCc4ccc5c(c4)OCO5)c3C2=O)CC1,11.5%
20,Cc1ccccc1Nc1nc(N)nc(CSc2ccccc2)n1,0.1%
21,COC(=O)CCC(=O)NC(=S)Nc1ccc(S(=O)(=O)Nc2cc(C)on2)cc1,18.2%
22,C=CCC1(CC=C)CCCN1C(=O)C1CCC(=O)N(CCc2ccc(OC)cc2)C1 (stereo not shown),0.621%
23,O=C1C=C(Nc2ccc(F)cc2)c2ccccc2C1=O,8.51%
24,O=C(Cn1cnc2ccccc2c1=O)NCC(=O)N1CCN(c2ccccn2)CC1,4.16%
25,CC(C)CCN(C(=O)CNC(=O)c1cccs1)C(C(=O)NC1CCCC1)c1ccncc1 (stereo not shown),10.7%
26,Cn1c(CC(=O)Nc2ccc(Cl)c(Cl)c2)nnc1SCC(=O)NCc1ccccc1,9.85%
27,O=C(CN1CCCCCC1)NN(Cc1ccccc1)c1ccccc1.O=C(O)C(=O)O,-46.3%
